The supplement of paper PMC11417369
± gives the standard deviation of the averaged measurements. The list shows a part of the results.

tested on: PfAP2-G AP2 domain (GST-tagged); test: gcPBM binding intensity (ln(normalized median fluorescence intensity)); higher = stronger DNA binding
Outline: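 Plasmodium falciparum DNA-binding domains carrying a GST tag were expressed in E. coli and applied for 1 h, at about 25 μg on average, to an Agilent 4 × 180k array. The array held primer-extended double-stranded 36-bp intergenic genomic probes together with negative controls, and binding took place in 1× PBS with 1% milk, 0.2 mg/ml BSA, 0.5% salmon testes DNA and 0.03% Triton X-100. An Alexa488 anti-GST antibody detected bound protein, and the array was scanned at 488 nm. Binding intensity is taken as the highest Masliner-normalised natural-log median intensity across replicate spots of either probe orientation.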

Sequence | gcPBM binding intensity (ln)
CATTTCATTAATAAATGTACTTGTGAAGAGAAAAAG [XGTACX_site3115] | 11.2 ± 0.71
AAAAGATAAAAAGAAGTGCATAATAGGAACAAATAT [GTGCAC_site9717] | 10.28 ± 0.049
ATAATAAAAAGAAAAAGTACAAATGATTATGTTTGA [XGTACX_site3615] | 11.2 ± 0.62
ATATATATATATATATATATAATAAAAGATCATTTA [XGTACX_negctrl_site371] | 10 ± 0.59
TTATCTAGTACATACATACACACAACCATGTTATGA [CACACA_site3988] | 11 ± 0.61
CAAGTATTATATTGCGCATGCAAAGAAGGACACAAA [TGCATGCA_site1024] | 11.5 ± 0.94
AATAAATAAATAAGTACACACATATAAATATAAATA [CACACA_site6271] | 11.6 ± 1.2
TTCTACATGAAGTTATAAATTAATATTTTAATTTAT [XGTACX_negctrl_site134] | 9.61 ± 0.25
GTATTTCTTTAATATACACACACCAAAACAAAAAAA [CACACA_site579] | 10.3 ± 0.38
TACTTTATTTTTTATACACACACAATATGTATATAT [CACACA_site9184] | 10.2 ± 0.17
TTTCAAGAATTATATAAACACACATACATACACCCA [CACACA_site8592] | 10.6 ± 0.62
ACATATATATATATTACACACACACTAATAAAATAA [CACACA_site7920] | 10.08 ± 0.057
ATAAGGATCAGACACAAACACACATATATATATATA [CACACA_site558] | 10.1 ± 0.3
AAATAATTCATATGTTGTACAGTAATTAAATTTTCT [XGTACX_site6343] | 11.4 ± 0.95
ATAATTAATCCAAAATGTACTTACATTTTATATGAA [XGTACX_site8888] | 11.1 ± 0.76
TTTTATAATTTATCTAAAAAAAAATAAAATAAAATG [TGCATGCA_negctrl_site429] | 9.86 ± 0.4
ATAAAATAAAATAAAAGTACATAAATATATATATAT [XGTACX_site6110] | 11.2 ± 0.83
TTTTTTTTTCTTTGCACACAGATAACTTGAAATTTG [CACACA_site2185] | 10.3 ± 0.2
TATATATATTTAAATTGTACATATATTATTCATATG [XGTACX_site911] | 10.9 ± 0.57
TCTTTCTATTAAACATGTACTTGTCTAAAGACATAA [XGTACX_site8564] | 11.1 ± 0.65
CGAATAAATATATGTAGTACATGTTGTAGATAATTT [XGTACX_site1218] | 11.5 ± 0.83
TTATTTTCTACAAATTGTACATATTTTTTACTACTC [XGTACX_site1394] | 11.1 ± 0.59
ATTTATGAAAAAAATACATGCATGTCCATATAAATT [TGCATGCA_site505] | 10.6 ± 0.31

Sequence | gcPBM binding intensity (ln)
AATAATATATATTACTGTACTAATATAAGGGACATC [XGTACX_site3744] | 11.5 ± 0.96
AATTATAATAATAATAGTACATAAGTATATAAATAA [XGTACX_site2400] | 11 ± 0.62
TCTTTCTAAATCTTACAAATTACTAAAATATTTATA [CACACA_negctrl_site87] | 9.765 ± 0.007
GAGGAAAAAAAAAAAAGTACATTATATAAGAAAATT [XGTACX_site2610] | 11.5 ± 1
TTAAATATTTATATTTGTACACAATCAATCATACAC [XGTACX_site5793] | 11.3 ± 0.75
AATAATAAAATAAAAGTGCATTAATTATAATTCTTT [GTGCAC_site9491] | 9.825 ± 0.049
AAAAAAAAAAAAAAAAGTACAAATTTAAAAATGTGT [XGTACX_site112] | 11.6 ± 1
TTGGTTTCTTGTTTTTGTACCCATAATTTGTAATAT [XGTACX_site1248] | 11.4 ± 0.87
TGTTTTGTTATTTTTATTTATATAAATAAAGCTATA [GTGCAC_negctrl_site88] | 10.3 ± 0.64
ATATATATATTATATGCACACTAATAAGACTATTTA [CACACA_site5880] | 10.1 ± 0.24
CATAAATACAGTAACACACACAAAAAAATATGAATA [CACACA_site6066] | 10.09 ± 0.049
TTTGTTTGTAAAATGTTGCACTTTCTTTTGCTGATA | 10.1 ± 0.12
ATAGGATTCTCAAAGTGTACTTGTCTACTGTAGTTT [XGTACX_site4202] | 11.4 ± 0.88
CCATTATACACAATATGTACATATATATAATCATTT [XGTACX_site7942] | 11.2 ± 0.76
AAAAAAAAAATATGTACACACATATAAAATACATAA [CACACA_site6869] | 11.6 ± 1
ATATATATATTTTATTGTACAAAAAAAAAAAAAAAA [XGTACX_site6803] | 11.1 ± 1
TTGTTATGCATTGGTTGTACATAAGTATAAGTAATT [XGTACX_site5401] | 11.1 ± 0.67
TCGTAATAATATAAATGTACTTTATTAATTAAAAGA [XGTACX_site3416] | 11.1 ± 0.6
TACAATATATTTATAGTGCATATTACTTTTAACTTT | 9.875 ± 0.049
TACATCTTACTACTTATAATATAATATAGTATGAAT [TGCATGCA_negctrl_site8] | 9.74 ± 0.13
CATTATGATTAAATATGTACATATTATTATATAAAT [XGTACX_site2477] | 11.2 ± 0.66
ACATTGCACCCGTGCACACATAGAAAAATAATTCTT [CACACA_site409] | 10.5 ± 0.32
GTAGTCCAAAAAAAGCGTACACAGAAAAAAAAAAAA [XGTACX_site4273] | 11.6 ± 1

Sequence | gcPBM binding intensity (ln)
ATAACAAAAATCCTTGTGCACTATTTTAATAGAGTC | 10.3 ± 0.31
AAAAAGTAAAAGAAAGCACACACACCGGTATATATG [CACACA_site9281] | 9.995 ± 0.021
ATATAATTTATGTGCACACACTCCTATTTTTAGCTT [CACACA_site50] | 10.6 ± 0.28
AAAAAAAATTTTATCTGTACACATTTTTTTCTTTTT [XGTACX_site4229] | 11.6 ± 0.74
CATGCCTTTAAAAAGGTGCAAACATTTTCACAAACA | 10.2 ± 0.22
TAATATATATGTATGGCACACACGGATAAATATATA [CACACA_site930] | 10.21 ± 0.092
AAAAAAAATATGAAAACACACATATATAAATAAATA [CACACA_site113] | 9.64 ± 0.18
TCTTTTTTAAATAAAAGTACAAAAAAAAATAAAAAA [XGTACX_site2670] | 11.4 ± 0.87
AACAAAATAAGACACACACACAAATGTACCTATATA [CACACA_site7189] | 11 ± 0.57
ATAAATGAGCCATATTAAATCCGTTACACGGGTGTG [CACACA_negctrl_site1368] | 10
TTATCATATGTATGCATACACACAAAAAATTATATA [CACACA_site397] | 10 ± 0.26
CAAACAAATATATGTTGTACTTATTATATATACATA [XGTACX_site2998] | 11.3 ± 0.78
ATGTAATTCTTTTACTTTTTTTTTTTTTTTTTTTTT [CACACA_negctrl_site979] | 10.7 ± 0.4
TTCTTTTAAATTAGCTGTACGGTTTTCTACATGCAT [XGTACX_site356] | 11.1 ± 0.52
AACGGGTAATGCACAAAAAAAAAAAAATAAAATAAA [TGCATGCA_negctrl_site474] | 10.1 ± 0.48
AAATTATTTTGTTATCATTATATATAGATTGAATAT [XGTACX_negctrl_site165] | 9.68 ± 0.057
AGAATAAAAAGGAACACACACACACGCATATAAATA [CACACA_site7659] | 10.24 ± 0.021
TTTATTTAATTCATTGCATGTAATTTTTGTGTCCAC [TGCATGCA_site677] | 11.1 ± 0.91
TTTTATGATAATTTTGCACACACTTAGGAAAAATTA [CACACA_site1556] | 10.2 ± 0.23
TTAAAAAAAAATGGCACACATTTTAATTTTATGTTT [CACACA_site5035] | 10.3 ± 0.36
ATTTGTAATTATTAAACACACACAAAATATATATAA [CACACA_site8804] | 10.2 ± 0.16
TTATTTTTTCTTTTTTTTCTTACCACAAAAATGGAT [CACACA_negctrl_site362] | 10.1 ± 0.13
ATTTATTTATATAATACACACAAATATCTTAATGAA [CACACA_site6064] | 9.88 ± 0.16

Sequence | gcPBM binding intensity (ln)
ATTTTTTCTAATGGGTGTACTGAAACGTATTTTATT [XGTACX_site6573] | 11.4 ± 0.98
GAATATAAACATATTACACACATCTATATGTACTTT [CACACA_site8582] | 10.7 ± 0.65
CAAAACAAAGTTGCCGCACACAGATACGCACCCAAG [CACACA_site3455] | 10.6 ± 0.4
TTGTGATTATATAATCGTACATAATTTTAATCACAC [XGTACX_site398] | 11 ± 0.74
AAAAAAAAAAAAAACACACACATATCTATAATATAT [CACACA_site7481] | 10 ± 0.13
TTCAAGATTTATTATACACACATATTAATATATATA [CACACA_site573] | 9.98 ± 0.35
AAAATACACCAACACACACACATATATATATATATT [CACACA_site4149] | 10.2 ± 0.14
GTAATATTATAATATACACACATAGAATATAAATAT [CACACA_site6333] | 10.04 ± 0.078
TTATAAAAAATTTTAGTGCATATATGATTTATATAT [GTGCAC_site9831] | 9.795 ± 0.035
TAATATGTATTTACAAGTACTAACAAAATATTAAAA [XGTACX_site3379] | 11 ± 0.71
TACAAAAATAAATGTTGTACTATTATTTATTTCGAT [XGTACX_site1048] | 11.2 ± 0.7
GGTTCATATATTAACACACACATACATATTATATAT [CACACA_site2937] | 10.1 ± 0.078
TGAGAGAGAAACGTAGTGCATAAAATCAAATTTAGA [GTGCAC_site9737] | 10.02 ± 0.099
AATAATCATAGTTCTACACACCTATATTGCAAAAAA [CACACA_site867] | 10.2 ± 0.24
CCATATCTTTTTTGCACACACTACAATAAAACAAAA [CACACA_site4995] | 10.4 ± 0.4
TTAAAGATATACAAAAGTACTTTTTTTTTCGTCATT [XGTACX_site384] | 11.1 ± 0.54
TTCATTAAATAGAACAAAATAATAATATAACAACAA [GTGCAC_negctrl_site116] | 9.94 ± 0.18
TGATACTTATGATAAATACACACTTGAAATTAAGGA [CACACA_site1152] | 10.4 ± 0.29
TTTTTTAGTTTTTAGTGTACATAAATAAATAAATAA [XGTACX_site2843] | 11.5 ± 0.69
TTAAAAAGAAAGTTCACACACATATAGATGACGGAA [CACACA_site7268] | 10.1 ± 0.092
